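Results reflect a 48-hour exposure of cells in 96-well plates to compound at five concentrations. GI50: concentration for 50% inhibition of growth.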 Calls of active or inactive are those of the source. No stated cut-off is given here; in the data, active = GI50 up to about 1.1 µM and inactive = higher.

The values below come from ChEMBL document CHEMBL1201862, “PubChem BioAssay data set” (2004).

This test has as its system NCI-H322M. As to the kind of experiment: inhibition of tumour cell growth, NCI panel, 48 h.
With `O=C1N=C(Nc2ccccc2Cl)N/C1=C\c1ccc(Cl)cc1Cl`, the GI50 was inactive: > 100 µM.
With `O=C(O)c1cccc2cccc(-c3cccc4cccc(C(=O)O)c34)c12`, the GI50 is inactive: > 100 µM.
For the molecule `COc1cc(C2c3cc4c(cc3OC(Nc3ccc(C(=O)O)cc3)C2C)OCO4)cc(OC)c1OC` (stereo not drawn), the GI50 was active: 0.457 µM.
Consider `CSCCC(C(=O)O)N(CC1(O)OCC(O)C(O)C1O)N=O` (stereo not drawn), for which the GI50 was inactive: > 100 µM.
Take `CC1(C)CCC2=C(O1)/C(=N\Nc1ccc(F)cc1)c1ccccc1C2=O`: the GI50 is inactive: 33.3 µM.
Turning to `CCOC(=O)c1csc(NC(=O)CCCC#N)n1`, the GI50 is inactive: > 100 µM.
As for `C/C=C(\C)c1cc(=O)c2c(C)cc3c(c2o1)C(=O)c1c(O)c(C2CC(C)(N(C)C)C(OC(C)=O)C(C)O2)cc(C2CC(N(C)C)C(O)C(C)O2)c1C3=O` (stereo not drawn), the GI50 was inactive: 1.36 µM.
Regarding `CCCCOCN/C(N)=N/C#N`, the GI50 is inactive: > 100 µM.
Regarding `Cc1cc(C)c(S(=O)(=O)ONC(=O)OC(C)(C)C)c(C)c1`, the GI50 was inactive: > 100 µM.
For the molecule `Oc1ccc2c3c1OC1C(=NN=C4CCC5(O)C6Cc7ccc(O)c8c7C5(CCN6CC5CC5)C4O8)CCC4(O)C(C2)N(CC2CC2)CCC314` (stereo not drawn), the GI50 was inactive: 41.2 µM.
As to `Cc1cc(C)cc(Nc2nnc3n2S(=O)(=O)c2cc(C)c(Cl)cc2S3)c1`, the GI50 is inactive: 17.8 µM.
Consider `COc1ccc(NC(=O)/C(Cc2nc3ccccc3nc2O)=N\O)c(OC)c1`, for which the GI50 is inactive: > 100 µM.
`CCOC(=O)c1sc2[n+](c1C)C(=O)/C(=C/c1ccccc1Cl)S2`: the GI50 was inactive: 2.86 µM.
Regarding `Cn1c2ccccc2c2c(=O)[nH]c(=O)[nH]c21`, the GI50 was inactive: > 100 µM.
Turning to `CCOC(=O)C1=C(C)N(NC(=O)Nc2ccccc2)C2(N)N(NC(=O)Nc3ccccc3)C(C)=C(C(=O)OCC)C12C#N` (stereo not drawn), the GI50 is inactive: 22.3 µM.
Next, `O=C1CN2C(Cl)(Cl)C2(c2ccccc2)c2cc(Cl)ccc2N1CC1CC1` (stereo not drawn): inactive: 19.2 µM.
`CC1(C)CCOC(Sc2ccccc2)C1` (stereo not drawn): the GI50 is inactive: > 100 µM.
The value for `CC1(C)OC2[C@@H](CO[C@@]3([C@@H](O)CCO)OC(C)(C)O[C@@H]23)O1` (stereo partly drawn) was inactive: > 100 µM.
For the molecule `CC(=O)O[C@H]1CC[C@@]2(C)C(=CC[C@H]3[C@@H]4C/C(=C\c5ccncc5)[C@H](OC(C)=O)[C@@]4(C)CC[C@@H]32)C1`, the GI50 was inactive: 13.2 µM.
As to `Cc1cc(C)c2c(=O)n(CN3CCC(C#N)(c4ccccc4)CC3)sc2n1`, the GI50 is inactive: > 100 µM.
As to `CC(NC1=NCCO1)c1ccccc1Cl` (stereo not drawn), the GI50 is inactive: > 100 µM.
Regarding `OC(c1cccs1)c1cc2ccccc2s1` (stereo not drawn), the GI50 was inactive: > 10 µM.
As for `CC(=O)c1ccc2c(c1)N(CCCN1CCN(CCO)CC1)c1ccccc1C2`, the GI50 was inactive: 17.8 µM.
Take `COC[C@@H](/N=C/c1ccc([N+](=O)[O-])cc1)C(C)C`: the GI50 was inactive: > 100 µM.
Regarding `C/C(O[Si](C(C)C)(C(C)C)C(C)C)=C(\C)C(=O)N(C)c1ccccc1Cl`, the GI50 is inactive: > 100 µM.
`Cc1cc(=O)nc(S(=O)(=O)NC(=S)Nc2ccc(Br)cc2)[nH]1`: the GI50 is inactive: > 100 µM.
Turning to `CSc1[nH]nc(N)c1C(=O)Nc1ccccc1`, the GI50 is inactive: > 100 µM.
For the molecule `Nc1c(Br)cc(-c2cc(Br)c(N)c(Br)c2)cc1Br`, the GI50 was inactive: > 100 µM.
On to `N#CCCN(CCC#N)c1ccc(/C=C2\N=C(c3ccccc3)N(c3ccccn3)C2=O)cc1`, for which the GI50 was inactive: > 100 µM.
With `c1cnc2nc3n(c2c1)CSC3`, the GI50 is inactive: > 100 µM.
For the molecule `Cc1cc2c(cc1C)C(=O)c1ncccc1C2=O`, the GI50 is inactive: 21.7 µM.
With `CCc1nnc(-c2nsc3ccccc23)s1`, the GI50 is inactive: > 100 µM.
On to `O=C1C(SCCO)=C(SCCO)C(=O)c2ccccc21`, for which the GI50 was inactive: 1.63 µM.
